Hit rate of the full screen: of about 50,000 compounds, about 800 (1.6%) showed an effect of 50% or more. The list shows a part of the results.
The molecules below were run against Bcl-2-like protein 10 (Homo sapiens) (UniProt Q9HD36) (assay: TR3 peptide-Bcl-B binding displacers, biochemical primary FP assay, phenotype converters (AID 1240;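 note: 0% = Bcl-B with tracer peptide and DMSO and 100% = tracer peptide lacking Bcl-B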)). Conditions: GST-Bcl-B / FITC-TR3 peptide fluorescence polarization; stronger effect = higher value; compound at 3.75 mg/L.
UniProt Q9HD36, sequence (Q9HD36 whole entry, looked up): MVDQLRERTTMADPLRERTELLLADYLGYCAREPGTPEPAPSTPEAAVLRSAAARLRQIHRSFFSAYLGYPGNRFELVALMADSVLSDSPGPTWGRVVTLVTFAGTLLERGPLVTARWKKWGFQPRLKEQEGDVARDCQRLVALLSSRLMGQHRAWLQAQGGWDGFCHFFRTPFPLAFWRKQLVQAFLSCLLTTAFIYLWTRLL

| SMILES | displacement |
| --- | --- |
| CC1C(c2ccc(Cl)cc2)NC(c2ccc(Cl)cc2)C(C)C1O (stereo unspecified) | -18.1% |
| O=C(O)c1ccc(N2C(=O)CC(NC3CCN(Cc4ccccc4)CC3)C2=O)cc1 (stereo unspecified) | 3.2% |
| COc1ccccc1/C=N/NC(=O)CSc1nc2ccccc2n1Cc1ccccc1 | 4% |
| O=C1NC(=S)N(c2cccc(Br)c2)C(=O)/C1=C\c1cc(Cl)ccc1O | 0% |
| COC(=O)c1sccc1NC(=O)c1cccc2ccccc12 | 36.6% |
| NC(=S)N/N=C/c1ccc(-c2cc(Cl)cc(Cl)c2)o1 | 17.1% |
| CCc1ccccc1NC(=O)CCc1ccccc1 | 11.9% |
| C=CCOc1c(Cl)cc(/C=C2/C(=O)NC(=O)N(c3ccccc3F)C2=O)cc1OCC | 37.4% |
| Cn1c2ccccc2c2nnc(SCC(=O)N(c3ccccc3)c3ccccc3)nc21 | 38.2% |
| COc1cccc(OCCOCCN2CCCC2)c1 | 7.5% |
| Cc1ccc(N2C(=O)CC(NCCc3ccccc3)C2=O)cc1 (stereo unspecified) | 4% |
| COC(=O)c1cc(C(=O)Nc2ccc(C)cn2)cc([N+](=O)[O-])c1 | -0.2% |
| CCN(CC)C(=O)C(=O)N/N=C/c1cccc(Br)c1 | 9.8% |
| CCOc1ccccc1CN1CCN(Cc2cc(OC)ccc2O)CC1 | 4.7% |
| CC(C)(C)c1ccc(/C=C/C(=O)N2CCc3ccccc3C2)cc1 | 6.2% |
| CS(=O)(=O)c1ccc2nc(NC(=O)/C=C/c3ccc(F)cc3)sc2c1 | 7.3% |
| COc1ccccc1NC(=O)COc1ccc(Cl)cc1 | 10% |
| COc1ccc(C(=O)Nc2sc3c(c2C#N)CCCCC3)cc1 | -3.4% |
| O=C(Nc1ccc2oc(-c3ccccc3)nc2c1)c1ccncc1 | -3.2% |
| Cc1ccc2cccc(SCC(=O)Nc3ccc([N+](=O)[O-])cc3)c2n1 | 11.9% |
| Cc1sc2nc(SCC(=O)N3CCOCC3)[nH]c(=O)c2c1C | 34.3% |
| Cc1ccc(CN2CCN(/N=C/c3ccc(C(F)(F)F)cc3)CC2)cc1 | 12.8% |
| COc1cc(NS(=O)(=O)c2ccc(N/C=C/C(=O)c3cccs3)cc2)nc(OC)n1 | 8.5% |
| CCN(Cc1ccccc1)C(=O)c1cccc([N+](=O)[O-])c1 | -13.3% |

| SMILES | displacement |
| --- | --- |
| Nc1nnc(SCC(=O)n2c3ccccc3c3ccccc32)s1 | 32.8% |
| CC(/C=N\N1CCN(c2ccccc2)CC1)=C\c1ccccc1 | -6% |
| COc1ccccc1N1CCN(/N=C\c2ccccc2[N+](=O)[O-])CC1 | -2.4% |
| COc1ccc(CC2S/C(=N\N=C\c3cccs3)NC2=O)cc1 (stereo unspecified) | 1.7% |
| Cc1cc(Cl)ccc1OCCCC(=O)Nc1ccc(C(N)=O)cc1 | 14.7% |
| O=C(/C=C/c1ccc(Cl)cc1Cl)Nc1ccc2c(c1)OCO2 | 9.4% |
| Cc1ccc(S(=O)(=O)Nc2cc(Sc3nc4ccccc4[nH]3)c(O)c3ccccc23)cc1 | 5.6% |
| COc1ccc(NC(=O)c2ccc(C)c(C)c2)c(OC)c1 | 10.6% |
| O=C1S/C(=C\c2ccc([N+](=O)[O-])cc2)C(=O)N1Cc1ccccc1 | -1.4% |
| O=C(Nc1ccc(Br)cc1C(=O)O)c1ccc2c(c1)C(=O)N(C1CCCCC1)C2=O | 2.9% |
| COc1cccc(OCCCCN2CCCC2)c1 | 5.3% |
| Cc1ccc(S(=O)(=O)Nc2cc(-c3ccc(F)cc3)[nH]n2)cc1 | 8.8% |
| O=C1S/C(=C/c2cccc(O)c2)C(=O)N1c1ccccc1 | 1.9% |
| O=C(c1cccc2ccccc12)N1CCN(c2ccccc2)CC1 | 0.1% |
| O=C(CN(Cc1ccccc1)S(=O)(=O)c1ccc(Cl)cc1)Nc1ccccc1 | -15.2% |
| CCOc1cc(C2C3=C(CC(C)(C)CC3=O)OC3=C2C(=O)CC(C)(C)C3)cc(Br)c1O | 13.6% |
| CCOC(=O)/C(=N/O)C1=NC(C)(C)Cc2cc(OC)c(OC)cc21 | 12.6% |
| CS(=O)(=O)N(CC(=O)Nc1cccc2ccccc12)c1ccc(Oc2ccccc2)cc1 | 5% |
| COc1ccc(-c2cc(C(F)(F)F)n3nc(C(=O)NCCN4CCOCC4)c(Cl)c3n2)cc1 | -10.2% |
| COc1cc(C)c(N(C(C)=O)c2ccccc2)c(C)c1 | -3.3% |
| Cc1onc(-c2ccccc2Cl)c1C(=O)Nc1nc(-c2ccc([N+](=O)[O-])cc2)cs1 | -12.5% |
| CC(=Nc1ccc(C)cc1)c1c(O)n(C)c(=O)n(C)c1=O | 5.1% |
| CN1CCN(C(=S)NC(=O)/C=C/c2ccc(Br)cc2)CC1 | -0.6% |
| COc1cc([N+](=O)[O-])ccc1NC(=O)COc1cccc(Cl)c1 | 6.2% |

| SMILES | displacement |
| --- | --- |
| COc1ccc2nc(NC(=O)c3sc4cc([N+](=O)[O-])ccc4c3Cl)sc2c1 | -17.3% |
| O=P(Cc1ccccc1O)(c1ccccc1)c1ccccc1 | 1.6% |
| COc1ccc(CN2CCN(C(=O)c3cccc(OC)c3OC)CC2)c(OC)c1 | -14.3% |
| Cc1cc(Cl)ccc1OC(C)C(=O)Nc1cc(Cl)ccc1Cl (stereo unspecified) | -5.1% |
| O=C(N=Nc1c(O)[nH]c2ccccc12)c1ccccn1 | -7.8% |
| CCOc1ccc(C(=O)Nc2ccc(-c3nc4ccccc4o3)c(O)c2)cc1[N+](=O)[O-] | 2.3% |
| CCOc1ccccc1NC(=O)c1cc(Cl)ccc1Cl | -13% |
| Cc1cc(C)n2nc(-c3cccc(F)c3)cc2n1 | 14.1% |
| C=CCn1c(=O)c(C(=O)Nc2ccccc2Cl)c(O)c2ccccc21 | -2.3% |
| Cc1ccccc1NC(=O)/C=C/c1ccc(F)cc1 | 10.3% |
| NS(=O)(=O)c1cccc(C(=O)Nc2ccc([N+](=O)[O-])cc2)c1 | 7.8% |
| COc1c(Cl)cc(Cl)cc1C1NC(=S)NC(C)=C1C(=O)Nc1ccccc1 (stereo unspecified) | -15.8% |
| CCOc1ccc(C=Nc2ccc3c(c2)nc(C)n3C)cc1 | 6.5% |
| Cc1cc(C(=O)Nc2ccc(NC(=O)C(=O)O)cc2)c(C)o1 | 7.1% |
| O=C1S/C(=C/c2ccccc2F)C(=O)N1CNc1cccc(C(F)(F)F)c1 | -4.4% |
| CCCCCCC(=O)Nc1nnc(CCC)s1 | -9.7% |
| Cc1ccc2ncnc(Nc3cccc(C(F)(F)F)c3)c2c1 | -3.1% |
| C=CCc1cccc2cc(C(=O)NCc3ccccc3)c(=O)oc12 | 34.1% |
| CC1=C(C(=O)OCCc2ccccc2)C(c2ccccc2[N+](=O)[O-])CC(=O)N1 (stereo unspecified) | -0.5% |
| COc1ccc(-c2cc(C(=O)NN)c3cc(Br)ccc3n2)cc1 | 25.3% |
| O=c1oc(-c2cccs2)nc2sc3c(c12)CCCCC3 | 15% |
| O=C(NCc1ccc(Cl)cc1)C(=O)Nc1ccc(F)cc1 | -0.1% |
| CC(/C=C/c1ccc2c(c1)OCO2)=N\NC(=O)C(O)c1ccccc1 (stereo unspecified) | 0.3% |

— PubChem BioAssay AID1240 (Sanford-Burnham Center for Chemical Genomics, 2008)
